Data reported in paper PMC8015715 (Genes & Development, 2021).

Biological target: T1, GST-tagged Rbm38-S195D (human, UniProt Q9H0Z9 1-239, S195D)
T1 sequence (looked up): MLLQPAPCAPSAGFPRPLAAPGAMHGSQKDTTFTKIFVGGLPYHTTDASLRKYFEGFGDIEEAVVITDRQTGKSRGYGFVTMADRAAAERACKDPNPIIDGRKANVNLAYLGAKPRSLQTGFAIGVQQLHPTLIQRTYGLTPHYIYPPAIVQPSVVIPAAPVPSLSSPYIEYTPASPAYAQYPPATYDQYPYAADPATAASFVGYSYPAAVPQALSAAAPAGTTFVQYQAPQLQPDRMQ
Test: pull-down

binding result: binds
B1: recombinant eIF4E-D202K (natural protein)
chain: not shown
